# The other results are listed elsewhere or left out. The list includes weakly bound sequences.
# Biological target: MaxL homodimer (UniProt P61244)
# Assay: universal protein-binding microarray (PBM)
# Details: PBS-based mixture, 10 nM His-tagged protein dimer, 2% milk, 200 ng/uL BSA, 50 ng/uL salmon testes DNA, 0.02% TX-100; detection with Alexa 488 anti-His …; high values mean tight binding; most listed sequences are background and not binding sites; double strand, one strand shown
# Chain of UniProt P61244 (P61244 whole entry): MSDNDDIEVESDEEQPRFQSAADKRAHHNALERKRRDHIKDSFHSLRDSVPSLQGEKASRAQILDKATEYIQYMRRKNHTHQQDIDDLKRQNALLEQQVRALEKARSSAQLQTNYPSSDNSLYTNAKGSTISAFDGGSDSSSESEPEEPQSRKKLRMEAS
row,Sequence,binding signal (normalized occupancy)
1,GATACACC,0.0796
2,AGAGATGC,0.0756
3,CCGCTGTC,0.0692
4,GTCCATCA,0.0781
5,CACTCCTC,0.0733
6,AGGATAGA,0.0803
7,ACCGGGGG,0.0687
8,ATCTAAAC,0.0791
9,ATGCATAG,0.0814
10,AGGTCTCG,0.0701
11,CGAGCATC,0.076
12,CTGTGTGA,0.0738
13,ATCATACA,0.0836
14,ATGTCATC,0.0845
15,AGCTTAAC,0.0697
16,ACGCGACG,0.0869
17,CCAATTGC,0.071
18,ATAACCAG,0.0789
19,ACTGAGGC,0.0658
20,AGCTCTTA,0.0717
21,GGTATCAA,0.0827
22,AGAAGATC,0.0742
23,CAAAGTGC,0.0698
24,ACCATGTG,0.225
25,ATTGAATG,0.0791

row,Sequence,binding signal (normalized occupancy)
1,TCCGACGA,0.0734
2,CGGGATAC,0.0813
3,CTGGCGCC,0.0656
4,AAATCCCC,0.0799
5,GCGGAGTA,0.0711
6,CCGTTGGC,0.0715
7,AGAGACTG,0.0692
8,ACCCGGAA,0.0708
9,TGATGCCA,0.081
10,ACTGTAAT,0.0778
11,GGAATCAC,0.0779
12,CTAGCAAG,0.0733
13,GTGTGACA,0.0905
14,CCTGACGC,0.0718
15,AATTTGTG,0.0785
16,GCATGGAC,0.0979
17,AAATCTAC,0.0756
18,ATAATGAG,0.0812
19,CGAAACGA,0.0702
20,TGTAAACA,0.0778
21,AAAAGGTG,0.0751
22,AGCGAAAG,0.0697
23,ATACGCAT,0.0968
24,ACTTGACG,0.0741
25,CGGGCTCC,0.0651

row,Sequence,binding signal (normalized occupancy)
1,CCTTGCCG,0.0696
2,GCGTGTCC,0.0957
3,GGGAATAC,0.083
4,GCATCGGA,0.0717
5,TCCCGGAA,0.0674
6,AAGCATAA,0.0767
7,GCTTGACC,0.0701
8,CCAATGCC,0.0744
9,AACTGGGG,0.0722
10,GCAGCAGA,0.0667
11,ATGTGTTA,0.0885
12,CCTTAGAG,0.0694
13,ATCTGTCG,0.0799
14,CGGTAGCC,0.0689
15,TTATTGAA,0.0832
16,CGTAGTTA,0.0726
17,CAAGGGTA,0.0758
18,TACAAACA,0.0741
19,GTGTGATA,0.0856
20,CCAGGTCG,0.0731
21,AGACTCTA,0.0706
22,CAGCAAGA,0.0751
23,CTTAAGCA,0.077
24,AGAGCTGA,0.0686
25,TACCTCTA,0.0744

row,Sequence,binding signal (normalized occupancy)
1,CGAATCAG,0.0747
2,ATTGTTAA,0.0765
3,AGAAGTCC,0.0733
4,CACTAACG,0.0797
5,AGAGCCGG,0.0642
6,TGCAGAAA,0.0784
7,GGGTGATA,0.0823
8,ATCACTGC,0.0733
9,AGTATCCG,0.072
10,ATACACCG,0.0799
11,CGGGTTAG,0.0773
12,AAGTAAGC,0.0754
13,AACGCAGA,0.0731
14,CGAACTCC,0.076
15,CTACGAGA,0.0744
16,AGCTTGTC,0.0735
17,AGCCAGCC,0.0664
18,GGATCGGA,0.0725
19,AACTATTC,0.0763
20,ATCTGTGG,0.0811
21,CAGGGGAC,0.0712
22,GTAACCAA,0.0733
23,AACCTACT,0.074
24,GTTTAAAC,0.0701
25,ACCTTACA,0.0736

row,Sequence,binding signal (normalized occupancy)
1,ATTTTTAA,0.0726
2,CCTCCGCC,0.07
3,CAGCCTGC,0.0703
4,ACGGGCAC,0.0709
5,CGCTCTCA,0.0761
6,CTGGTCTA,0.0727
7,CCATCTAA,0.0754
8,CTATCCGA,0.0775
9,ATCTGTAC,0.0797
10,CACAAACC,0.0835
11,AGTGATGG,0.0766
12,TCTTGCCA,0.071
13,TTCACCAA,0.0806
14,ATAGTACG,0.0789
15,CTAGCCAC,0.0792
16,CGTTGTGA,0.0761
17,CTGCGAAC,0.0721
18,CCTGAGCG,0.0705
19,TGCATGCA,0.1
20,AGTGCATC,0.0772
21,ACGTCAGG,0.0736
22,ACCGCCTA,0.0644
23,AGGTGGTA,0.0821
24,CGCCTAGC,0.0653
25,AATTATGA,0.0791

row,Sequence,binding signal (normalized occupancy)
1,AATCCCCC,0.0813
2,ATCGTTTA,0.0777
3,TCATCTCA,0.0823
4,CATAAGGG,0.0783
5,GGTCAGAA,0.0719
6,ACGGGCCT,0.0636
7,AGCATAGA,0.0763
8,CCATGTCG,0.0843
9,AATAGATC,0.0772
10,CCAGCAGC,0.075
11,ATCATTTC,0.0749
12,CATTTATC,0.0812
13,CTGAACAC,0.0755
14,GGACAGAA,0.0703
15,AGGGACAA,0.0727
16,ATGCCGTC,0.0837
17,GGTTCGGA,0.0693
18,AAACGTTG,0.0765
19,CACCGTCC,0.0768
20,CTGTTACC,0.0806
21,ACCTGCTG,0.0779
22,GCAGATAC,0.0761
23,CCTACATA,0.0791
24,AATTGCGC,0.0728
25,ACGGAGCG,0.067

row,Sequence,binding signal (normalized occupancy)
1,ACTAGCGA,0.0716
2,AGCTTGGA,0.0672
3,GTCAGCTA,0.0744
4,GCCTGCAA,0.0704
5,CTACAGGC,0.072
6,GAGAGTCA,0.0795
7,ACGAAACC,0.0733
8,ACAATCTC,0.0769
9,ACCCAGCT,0.0699
10,CCACTCAG,0.0756
11,CTGTGCGA,0.0726
12,GGTATGTA,0.0857
13,GCAACGAA,0.0715
14,TAGACAGA,0.0717
15,AGAGAGAT,0.0736
16,AACTCTCG,0.0746
17,ACGCATAT,0.0946
18,CATGAACG,0.0803
19,CGTCGTGA,0.0754
20,GACTATAA,0.0784
21,CCTCCCAG,0.0751
22,CGGGTGAC,0.0779

# Source: paper PMC4242493
